# In the supplement of paper PMC8728848:
# This is one part of the list.
# B1: Pa IMPa (Pseudomonas aeruginosa), Q9I5W4 (protein)
# chain: MSLSTTAFPSLQGENMSRSPIPRHRALLAGFCLAGALSAQAATQEEILDAALVSGDSSQLTDSHLVALRLQQQVERIRQTRTQLLDGLYQNLSQAYDPGAASMWVLPANPDNTLPFLIGDKGRVLASLSLEAGGRGLAYGTNVLTQLSGTNAAHAPLLKRAVQWLVNGDPGAATAKDFKVSVVGVDKTAALNGLKSAGLQPADAACNALTDASCASTSKLLVLGNGASAASLSATVRARLQAGLPILFVHTNGWNQSSTGQQILAGLGLQEGPYGGNYWDKDRVPSSRTRTRSVELGGAYGQDPALVQQIVDGSWRTDYDWSKCTSYVGRTTCDDVPGLSDFSKRVDVLKGALDAYNQKAQNLFALPGTTSLRLWLLWADAVRQNIRYPMDKAADTARFQETFVADAIVGYVREAGAAQKELGSYAGQRQQSMPVSGSEETLTLTLPSAQGFTAIGRMAAPGKRLSIRIEDAGQASLAVGLNTQRIGSTRLWNTRQYDRPRFLKSPDIKLQANQSVALVSPYGGLLQLVYSGATPGQTVTVKVTGAASQPFLDIQPGEDSSQAIADFIQALDADKADWLEIRSGSVEVHAKVEKVRGSIDKDYGGDVQRFIRELNEVFIDDAYTLAGFAIPNQAKTPAIQQECAARGWDCDSETLHKLPGTQHINVDQYAQCGGGCSGNPYDQTWGLNPRGWGESHELGHNLQVNRLKVYGGRSGEISNQIFPLHKDWRVLREFGQNLDDTRVNYRNAYNLIVAGRAEADPLAGVYKRLWEDPGTYALNGERMAFYTQWVHYWADLKNDPLQGWDIWTLLYLHQRQVDKSDWDANKAALGYGTYAQRPGNSGDASSTDGNDNLLLGLSWLTQRDQRPTFALWGIRTSAAAQAQVAAYGFAEQPAFFYANNRTNEYSTVKLLDMSQGSPAWPFP
# What was measured:
# Assay in all cases: glycan array binding signal (z-score within array); higher = stronger binding
# Conditions in all cases: glycan notation: IUPAC condensed, linker removed
# [1] = target: Neu5Ac(a2-3)Gal(b1-3)GlcNAc6S
# In short: (§1)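 The binding signal is a Z-score computed within each array. Data were drawn from 3228 arrays in the Consortium for Functional Glycomics database, restricted to those with a known protein sequence. Scores were averaged over arrays of the same protein sequence at different concentrations or buffers, and over linkers, and negative values can be taken as non-binding.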
# [2] = target: Neu5Ac(a2-3)Gal(b1-3)[Fuc(a1-4)]GlcNAc
# In short: as §1
# [3] = target: Neu5Ac(a2-3)Gal(b1-3)[Fuc(a1-4)]GlcNAc(b1-3)Gal(b1-3)[Fuc(a1-4)]GlcNAc
# In short: as §1
# [4] = target: Neu5Ac(a2-3)Gal(b1-3)[Fuc(a1-4)]GlcNAc(b1-3)Gal(b1-4)[Fuc(a1-3)]GlcNAc
# In short: as §1
# [5] = target: Neu5Ac(a2-3)Gal(b1-3)[GlcNAc(b1-6)]GalNAc
# In short: as §1
# [6] = target: Neu5Ac(a2-3)Gal(b1-3)[Neu5Ac(a2-6)]GalNAc
# In short: as §1
# [7] = target: Neu5Ac(a2-3)Gal(b1-3)[Neu5Ac(a2-6)]GlcNAc(b1-3)[Fuc(a1-3)[Gal(b1-4)]GlcNAc(b1-6)]Gal(b1-4)Glc
# In short: as §1
# [8] = target: Neu5Ac(a2-3)Gal(b1-3)]Neu5Ac(a2-3)Gal(b1-4)]GlcNAc
# In short: as §1
# Neu5Ac(a2-3)Gal(b1-4)Glc = target: Neu5Ac(a2-3)Gal(b1-4)Glc
# In short: as §1
# [9] = target: Neu5Ac(a2-3)Gal(b1-4)GlcNAc
# In short: as §1
# [10] = target: Neu5Ac(a2-3)Gal(b1-4)GlcNAc(b1-2)Man
# In short: as §1
# [11] = target: Neu5Ac(a2-3)Gal(b1-4)GlcNAc(b1-2)Man(a1-3)[GlcNAc(b1-4)][Neu5Ac(a2-3)Gal(b1-4)GlcNAc(b1-2)Man(a1-6)]Man(b1-4)GlcNAc(b1-4)GlcNAc
# In short: as §1
# [12] = target: Neu5Ac(a2-3)Gal(b1-4)GlcNAc(b1-2)Man(a1-3)[Neu5Ac(a2-3)Gal(b1-4)GlcNAc(b1-2)Man(a1-6)]Man(b1-4)GlcNAc(b1-4)GlcNAc
# In short: as §1
# [13] = target: Neu5Ac(a2-3)Gal(b1-4)GlcNAc(b1-2)Man(a1-3)[Neu5Ac(a2-3)Gal(b1-4)GlcNAc(b1-2)Man(a1-6)]Man(b1-4)GlcNAc(b1-4)[Fuc(a1-6)]GlcNAc
# In short: as §1
# [14] = target: Neu5Ac(a2-3)Gal(b1-4)GlcNAc(b1-2)Man(a1-3)[Neu5Ac(a2-6)Gal(b1-4)GlcNAc(b1-2)Man(a1-6)]Man(b1-4)GlcNAc(b1-4)GlcNAc
# In short: as §1
# [15] = target: Neu5Ac(a2-3)Gal(b1-4)GlcNAc(b1-2)[Neu5Ac(a2-3)Gal(b1-4)GlcNAc(b1-4)]Man(a1-3)[GlcNAc(b1-4)][Neu5Ac(a2-3)Gal(b1-4)GlcNAc(b1-2)[Neu5Ac(a2-3)Gal(b1-4)GlcNAc(b1-6)]Man(a1-6)]Man(b1-4)GlcNAc(b1-4)GlcNAc
# In short: as §1
# [16] = target: Neu5Ac(a2-3)Gal(b1-4)GlcNAc(b1-2)[Neu5Ac(a2-3)Gal(b1-4)GlcNAc(b1-4)]Man(a1-3)[GlcNAc(b1-4)][Neu5Ac(a2-3)Gal(b1-4)GlcNAc(b1-4)Man(a1-6)]Man(b1-4)GlcNAc(b1-4)GlcNAc
# In short: as §1
# [17] = target: Neu5Ac(a2-3)Gal(b1-4)GlcNAc(b1-2)[Neu5Ac(a2-3)Gal(b1-4)GlcNAc(b1-6)]Man(a1-6)[Neu5Ac(a2-3)Gal(b1-4)GlcNAc(b1-2)Man(a1-3)][GlcNAc(b1-4)]Man(b1-4)GlcNAc(b1-4)GlcNAc
# In short: as §1
# [18] = target: Neu5Ac(a2-3)Gal(b1-4)GlcNAc(b1-3)Gal
# In short: as §1
# [19] = target: Neu5Ac(a2-3)Gal(b1-4)GlcNAc(b1-3)Gal(b1-3)GlcNAc
# In short: as §1
# [20] = target: Neu5Ac(a2-3)Gal(b1-4)GlcNAc(b1-3)Gal(b1-4)GlcNAc
# In short: as §1
# [21] = target: Neu5Ac(a2-3)Gal(b1-4)GlcNAc(b1-3)Gal(b1-4)GlcNAc(b1-2)Man(a1-3)[Neu5Ac(a2-3)Gal(b1-4)GlcNAc(b1-3)Gal(b1-4)GlcNAc(b1-2)Man(a1-6)]Man(b1-4)GlcNAc(b1-4)GlcNAc
# In short: as §1
# [22] = target: Neu5Ac(a2-3)Gal(b1-4)GlcNAc(b1-3)Gal(b1-4)GlcNAc(b1-3)Gal(b1-4)GlcNAc
# In short: as §1
# [23] = target: Neu5Ac(a2-3)Gal(b1-4)GlcNAc(b1-3)Gal(b1-4)GlcNAc(b1-3)Gal(b1-4)GlcNAc(b1-2)Man(a1-3)[Neu5Ac(a2-3)Gal(b1-4)GlcNAc(b1-3)Gal(b1-4)GlcNAc(b1-3)Gal(b1-4)GlcNAc(b1-2)Man(a1-6)]GalNAc
# In short: as §1
# [24] = target: Neu5Ac(a2-3)Gal(b1-4)GlcNAc(b1-3)Gal(b1-4)GlcNAc(b1-3)GalNAc
# In short: as §1
# [25] = target: Neu5Ac(a2-3)Gal(b1-4)GlcNAc(b1-3)Gal(b1-4)GlcNAc(b1-3)[Neu5Ac(a2-3)Gal(b1-4)GlcNAc(b1-3)Gal(b1-4)GlcNAc(b1-6)]GalNAc
# In short: as §1
# [26] = target: Neu5Ac(a2-3)Gal(b1-4)GlcNAc(b1-3)Gal(b1-4)GlcNAc(b1-6)[Gal(b1-3)]GalNAc
# In short: as §1
# [27] = target: Neu5Ac(a2-3)Gal(b1-4)GlcNAc(b1-3)Gal(b1-4)[Fuc(a1-3)]GlcNAc
# In short: as §1
# [28] = target: Neu5Ac(a2-3)Gal(b1-4)GlcNAc(b1-3)GalNAc
# In short: as §1
# [29] = target: Neu5Ac(a2-3)Gal(b1-4)GlcNAc(b1-3)[Neu5Ac(a2-3)Gal(b1-4)GlcNAc(b1-6)]GalNAc
# In short: as §1
binder,measurement,setting,value
B1,glycan array binding signal (z-score),[1],0.117
same,glycan array binding signal (z-score),[2],-0.15
same,glycan array binding signal (z-score),[3],-0.544
same,glycan array binding signal (z-score),[4],-0.405
same,glycan array binding signal (z-score),[5],0.532
same,glycan array binding signal (z-score),[6],0.005
same,glycan array binding signal (z-score),[7],-0.241
same,glycan array binding signal (z-score),[8],-0.06
same,glycan array binding signal (z-score),Neu5Ac(a2-3)Gal(b1-4)Glc,-0.167
same,glycan array binding signal (z-score),[9],-0.444
same,glycan array binding signal (z-score),[10],0.389
same,glycan array binding signal (z-score),[11],-0.598
same,glycan array binding signal (z-score),[12],-0.388
same,glycan array binding signal (z-score),[13],0.066
same,glycan array binding signal (z-score),[14],1.22
same,glycan array binding signal (z-score),[15],-0.116
same,glycan array binding signal (z-score),[16],1.01
same,glycan array binding signal (z-score),[17],-0.802
same,glycan array binding signal (z-score),[18],1.1
same,glycan array binding signal (z-score),[19],0.154
same,glycan array binding signal (z-score),[20],-0.359
same,glycan array binding signal (z-score),[21],-0.226
same,glycan array binding signal (z-score),[22],-0.124
same,glycan array binding signal (z-score),[23],0.19
same,glycan array binding signal (z-score),[24],-0.642
same,glycan array binding signal (z-score),[25],-0.462
same,glycan array binding signal (z-score),[26],0.35
same,glycan array binding signal (z-score),[27],-0.597
same,glycan array binding signal (z-score),[28],-0.307
same,glycan array binding signal (z-score),[29],0.065
